This is one part of the list. Antibody binding of pooled human sera (four to six donors per pool; dilution not stated) to peptides of the Trypanosoma cruzi antigen TSSA on microarrays. Quantile-normalised fluorescence in arbitrary units, mean of duplicate arrays; higher = more binding. No active / inactive call. The uninfected pools are read here as the healthy donors of the same country. The strongest signals lie near the top of the scale (about 60,000).
Columns and labels:
Experiment in all cases: antibody binding signal (normalised fluorescence) (arbitrary fluorescence units); higher = stronger serum antibody binding to peptide
[1] = system: pooled sera of chronic Chagas disease patients, Argentina
Description: (§1)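 Microarray of 15-residue peptides over residues 30-55 of Trypanosoma cruzi TSSAII, each with 1 to 10 substitutions at naturally variable positions, probed with one serum pool per country.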

[2] = system: pooled sera of chronic Chagas disease patients, Bolivia
Description: as §1

[3] = system: pooled sera of chronic Chagas disease patients, Brazil
Description: as §1

[4] = system: pooled sera of chronic Chagas disease patients, Colombia
Description: as §1

[5] = system: pooled sera of chronic Chagas disease patients, Mexico
Description: as §1

[6] = system: pooled sera of chronic Chagas disease patients, USA
Description: as §1

[7] = system: pooled sera of uninfected people, Argentina
Description: as §1

[8] = system: pooled sera of uninfected people, Bolivia
Description: as §1

[9] = system: pooled sera of uninfected people, Brazil
Description: as §1

[10] = system: pooled sera of uninfected people, Colombia
Description: as §1

[11] = system: pooled sera of uninfected people, Mexico
Description: as §1

[12] = system: pooled sera of uninfected people, USA
Description: as §1

Sequence | antibody binding signal [1] | antibody binding signal [2] | antibody binding signal [3] | antibody binding signal [4] | antibody binding signal [5] | antibody binding signal [6] | antibody binding signal [7] | antibody binding signal [8] | antibody binding signal [9] | antibody binding signal [10] | antibody binding signal [11] | antibody binding signal [12]
KEKKAATGEAPSQSG | 12000 | 11900 | 20600 | 162 | 201 | 19100 | 285 | 83.5 | 102 | 167 | 92.6 | 134
KDKKPAAGGAPSPPG | 157 | 210 | 154 | 1400 | 151 | 441 | 123 | 82.3 | 113 | 71 | 67.5 | 104
TPPSGKDKKAATGGT | 4460 | 280 | 519 | 446 | 39200 | 687 | 165 | 231 | 387 | 346 | 81.6 | 161
KEKKPATGETPSPPG | 23700 | 4850 | 21600 | 167 | 149 | 16100 | 130 | 177 | 135 | 130 | 740 | 812
GKEKKAAAGETPSQS | 2210 | 281 | 633 | 1820 | 3430 | 3260 | 110 | 107 | 87.2 | 115 | 94.9 | 98.5
STPPSGTDNKAATGE | 29700 | 39800 | 46300 | 1100 | 7910 | 24400 | 914 | 557 | 759 | 180 | 163 | 237
TPPSGTDKKTATGET | 8720 | 10800 | 24700 | 3430 | 19600 | 1500 | 233 | 156 | 357 | 370 | 532 | 142
KKTAAGETPSQSGAS | 261 | 338 | 733 | 339 | 548 | 792 | 281 | 170 | 94.9 | 230 | 180 | 341
PPSGTENKTAAGEAP | 44800 | 38900 | 44700 | 303 | 2730 | 14200 | 1650 | 422 | 345 | 435 | 278 | 518
SGTEKKTATGGTPSP | 1930 | 923 | 1940 | 6490 | 1340 | 2230 | 298 | 417 | 392 | 1180 | 176 | 151
GKEKKPATGETPSPP | 30200 | 5530 | 20500 | 6560 | 8410 | 19700 | 165 | 167 | 94.6 | 126 | 479 | 412
PSGTDKKAATGEAPS | 21700 | 22300 | 26300 | 3190 | 1190 | 25800 | 418 | 594 | 255 | 564 | 1350 | 295
GTENKTAAGEAPSPS | 28100 | 1490 | 1720 | 1150 | 1470 | 8130 | 210 | 299 | 187 | 261 | 138 | 117
TPPSGKEKKPAAGEA | 17900 | 398 | 746 | 686 | 26400 | 2140 | 713 | 926 | 135 | 453 | 73.4 | 365
TDNKTATGETPSPSG | 526 | 1610 | 2150 | 234 | 197 | 8560 | 141 | 344 | 257 | 144 | 347 | 2710
KENKTATGEAPSPPG | 12000 | 20900 | 18800 | 669 | 739 | 19100 | 182 | 136 | 184 | 170 | 138 | 138
TENKAAAGETPSQPG | 31500 | 3620 | 38300 | 281 | 201 | 3300 | 92 | 560 | 180 | 244 | 113 | 166
PPSGKENKPATGEAP | 45700 | 44800 | 50500 | 765 | 1970 | 43100 | 2960 | 2750 | 455 | 854 | 379 | 636
TEKKAATGETPSPPG | 1710 | 2080 | 13200 | 300 | 366 | 9740 | 427 | 228 | 247 | 761 | 222 | 1910
GTEKKTATGGTPSQP | 1280 | 453 | 841 | 4010 | 1020 | 1980 | 418 | 379 | 266 | 756 | 808 | 128
TPPSGTENKTAAGET | 39900 | 38600 | 44400 | 159 | 1860 | 16900 | 1820 | 286 | 375 | 349 | 273 | 235
GTEKKAATGETPSQS | 5410 | 2320 | 14900 | 2150 | 3090 | 11200 | 550 | 831 | 217 | 634 | 239 | 191
PSGKDKKPAAGETPS | 3930 | 953 | 4250 | 6300 | 5510 | 5540 | 161 | 473 | 93.6 | 235 | 75.7 | 77.8
KENKAATGGAPSQSG | 327 | 241 | 1770 | 237 | 302 | 1490 | 192 | 90.1 | 99 | 99.6 | 78.3 | 148
NKPATGGTPSPPGAS | 444 | 952 | 2870 | 271 | 400 | 278 | 799 | 1670 | 874 | 1260 | 232 | 1740

Sequence | antibody binding signal [1] | antibody binding signal [2] | antibody binding signal [3] | antibody binding signal [4] | antibody binding signal [5] | antibody binding signal [6] | antibody binding signal [7] | antibody binding signal [8] | antibody binding signal [9] | antibody binding signal [10] | antibody binding signal [11] | antibody binding signal [12]
TDKKTATGEAPSPSG | 8930 | 22600 | 10700 | 183 | 567 | 19500 | 183 | 103 | 225 | 109 | 162 | 171
GTDNKPAAGETPSQP | 3620 | 3820 | 44000 | 904 | 213 | 4420 | 129 | 611 | 320 | 199 | 322 | 104
TISTPPSGTEKKPAT | 45500 | 17400 | 44700 | 809 | 36200 | 8490 | 1110 | 757 | 587 | 246 | 242 | 988
GTDKKPATGETPSPP | 33400 | 23500 | 30200 | 7490 | 452 | 22500 | 175 | 522 | 211 | 261 | 1850 | 477
GTDNKTATGGTPSPS | 437 | 1120 | 27600 | 726 | 710 | 756 | 245 | 634 | 2090 | 582 | 228 | 184
GTENKTATGETPSPP | 29900 | 4910 | 3170 | 600 | 954 | 7330 | 165 | 307 | 143 | 207 | 200 | 499
TDKKAAAGGTPSPPG | 1300 | 206 | 196 | 5590 | 422 | 1570 | 129 | 105 | 1270 | 199 | 95.1 | 130
PPSGTENKPATGGTP | 47600 | 51500 | 50900 | 380 | 4740 | 22100 | 4350 | 2010 | 1050 | 878 | 647 | 1110
TDKKAAAGGTPSQPG | 1100 | 221 | 274 | 6580 | 422 | 1440 | 222 | 103 | 2230 | 168 | 747 | 166
GTENKPATGGTPSQS | 48400 | 6730 | 7570 | 3340 | 5580 | 2610 | 594 | 1950 | 899 | 318 | 528 | 195
NKPATGGAPSPPGAS | 637 | 2580 | 6990 | 319 | 332 | 1980 | 847 | 1990 | 284 | 918 | 253 | 1810
PSGKEKKAAAGGTPS | 5440 | 976 | 6790 | 9480 | 11300 | 8200 | 259 | 104 | 349 | 177 | 80.4 | 128
GTDNKAAAGETPSPS | 214 | 332 | 31800 | 237 | 222 | 2840 | 134 | 694 | 804 | 116 | 384 | 1940
PPSGKENKTAAGGAP | 9060 | 593 | 4600 | 3920 | 3950 | 4060 | 3480 | 1370 | 200 | 695 | 464 | 407
GKENKAATGETPSPP | 10900 | 2530 | 26800 | 12100 | 10300 | 23900 | 460 | 243 | 105 | 168 | 170 | 849
DNKPATGETPSPPGA | 31700 | 22500 | 32200 | 249 | 208 | 23000 | 134 | 388 | 417 | 150 | 1440 | 416
TPPSGKDNKTAAGEA | 5610 | 2710 | 2240 | 878 | 22900 | 2470 | 238 | 541 | 250 | 253 | 509 | 144
NKTAAGGAPSPSGAS | 336 | 470 | 5560 | 6660 | 1230 | 801 | 874 | 1050 | 457 | 327 | 342 | 1350
GKDKKPATGGTPSQP | 454 | 320 | 542 | 880 | 572 | 619 | 238 | 161 | 204 | 90.9 | 194 | 91.8
DKKPATGEAPSPSGA | 48400 | 43600 | 47700 | 211 | 228 | 44300 | 956 | 682 | 290 | 267 | 219 | 211
ISTPPSGKEKKAATG | 11800 | 164 | 238 | 348 | 16700 | 663 | 320 | 420 | 98.7 | 280 | 91 | 117
SSTPPSGKDNKTAAG | 33500 | 9700 | 5770 | 1240 | 36000 | 3580 | 403 | 514 | 373 | 222 | 144 | 260
EKKAAAGGAPSPSGA | 693 | 207 | 259 | 5450 | 844 | 1050 | 214 | 532 | 222 | 149 | 120 | 531
PSGTEKKTAAGGAPS | 6380 | 1620 | 2950 | 10600 | 5420 | 4110 | 428 | 282 | 219 | 317 | 270 | 623
NKAATGEAPSQPGAS | 17600 | 41600 | 45500 | 188 | 212 | 26100 | 580 | 895 | 422 | 434 | 270 | 984

From the supplement of paper PMC10441789
